The supplement of paper PMC12217912
The other results are listed elsewhere or left out. The full chains were built here from the parent and the listed change. Inactive controls read about 0.05.

B1: TEV protease; numbered along this chain (parent)
chain: MGESLFKGPRDYNPISSSICHLTNESDGHTTSLYGIGFGPFIITNKHLFRRNNGTLVVQSLHGVFKVKDTTTLQQHLVDGRDMIIIRMPKDFPPFPQKLKFREPQREERICLVTTNFQTKSMSSMVSDTSCTFPSGDGIFWKHWIQTKDGQCGSPLVSTRDGFIVGIHSASNFTNTNNYFTSVPKNFMELLTNQEAQQWVSGWRLNADSVLWGGHKVFMVKPEEPFQPVKEATQL

Variants of: B1
Assay: raw area under fraction-flipped curve 0-4 h after induction (AUC4h, not background-subtracted), DNA-recorder readout of cleavage of the substrate (dimensionless); higher = more cleavage of the substrate by the protease variant
Conditions: temperature: 34 °C; time window: 0-4 h after rhamnose induction
Experimental: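 In vivo DNA recorder in E. coli TOP10(DE3) ΔrhaA at 34 °C. Each TEVp single-site mutant (parent TEVp 0) is paired with a single-site variant of the 7-mer TEVs (canonical ENLYFQ|S). The substrate sits between flexible linkers in a Bxb1-sfGFP-TEVs-SsrA fusion, so cleavage stabilises Bxb1 and speeds flipping of a recombination array, read by NGS. The value is the raw area under the fraction-flipped curve over 0-4 h after rhamnose induction (AUC4h), with ≥20 reads per time point. It is not background-subtracted; inactive controls average about 0.047.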
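Also: Bxb1 expression induced with 0.2% (w/v) L-rhamnose at OD600 near 0.5, cultures sampled hourly, flipped fraction per protease–substrate barcode pair counted by paired-end Illumina sequencing.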

Variant | area with substrate EALYFQS | area with substrate ECLYFQS | area with substrate EDLYFQS | area with substrate EELYFQS | area with substrate EHLYFQS | area with substrate EILYFQS | area with substrate ELLYFQS | area with substrate EMLYFQS | area with substrate EQLYFQS | area with substrate ERLYFQS | area with substrate ESLYFQS | area with substrate EVLYFQS | area with substrate EWLYFQS | area with substrate EYLYFQS | area with substrate EFLYFQS | area with substrate EGLYFQS | area with substrate EPLYFQS | area with substrate ETLYFQS | area with substrate EKLYFQS
W144Q | 0.084 | 0.0906 | 0.0916 | 0.102 | 0.0941 | 0.0862 | 0.0893 | 0.0808 | 0.0894 | 0.0629 | 0.0802 | 0.0791 | 0.0752 | 0.073 | – | – | – | – | –
W144T | 0.0916 | 0.115 | 0.124 | – | 0.1 | 0.0697 | – | 0.102 | 0.0982 | – | 0.0861 | 0.0732 | 0.14 | – | 0.0866 | 0.108 | 0.108 | 0.105 | –
W144L | 0.1 | 0.108 | 0.0894 | 0.112 | – | – | – | 0.0888 | 0.104 | – | – | – | – | 0.0977 | – | – | – | 0.104 | 0.0823
S123T | 0.0907 | 0.0845 | 0.077 | – | – | 0.0899 | 0.071 | 0.119 | – | 0.116 | 0.104 | 0.186 | 0.0786 | – | 0.0842 | – | – | – | 0.098
P134L | 0.0963 | 0.0505 | 0.0718 | – | – | 0.0885 | – | 0.0573 | 0.083 | – | 0.0603 | 0.118 | 0.0898 | 0.106 | – | – | 0.0918 | – | –
P134E | 0.129 | 0.117 | – | 0.0865 | 0.0901 | 0.0919 | – | – | 0.0838 | 0.0934 | 0.0999 | 0.103 | 0.0753 | – | 0.081 | 0.0859 | 0.147 | 0.091 | 0.0578
D128H | 0.129 | 0.13 | 0.151 | – | – | 0.13 | 0.114 | – | 0.116 | 0.13 | 0.135 | – | – | – | – | 0.115 | – | – | 0.128
T114M | 0.155 | 0.108 | 0.117 | – | 0.13 | 0.0866 | 0.1 | – | 0.117 | 0.0913 | – | 0.11 | 0.0771 | – | – | 0.0751 | – | – | 0.123
C111K | 0.173 | 0.111 | 0.145 | 0.14 | – | 0.159 | – | – | 0.122 | 0.0966 | 0.137 | – | 0.0897 | – | – | 0.104 | – | 0.126 | 0.11
Q151S | 0.142 | 0.0852 | 0.123 | 0.151 | 0.134 | 0.0998 | 0.0799 | 0.125 | 0.106 | 0.0978 | 0.0869 | 0.0852 | 0.108 | – | 0.134 | – | 0.16 | – | –
Q151H | 0.0047 | 0.0806 | 0.0842 | – | – | 0.0618 | – | – | 0.105 | – | 0.095 | 0.0817 | 0.0819 | – | – | 0.0907 | 0.0902 | – | 0.0962
F140M | 0.0892 | 0.0844 | 0.114 | – | – | 0.0717 | 0.0759 | – | – | 0.061 | 0.0733 | – | – | 0.0627 | – | – | – | 0.0795 | 0.0667
F140P | 0.0496 | 0.0542 | 0.0616 | 0.0611 | 0.0645 | 0.06 | 0.0587 | 0.0764 | 0.0638 | 0.0602 | 0.0744 | 0.0698 | 0.0763 | – | 0.0577 | 0.057 | 0.0558 | – | 0.0711
F140I | 0.0599 | 0.0808 | 0.0684 | – | – | 0.0655 | 0.0599 | 0.0785 | 0.0598 | 0.0655 | 0.056 | 0.0653 | – | – | – | – | 0.056 | – | 0.0655
